Some of these densities may be calculated back from excess volumes.
Assay: xn = mol fraction of the nth substance listed
Details: 100 kPa

CCCC[n+]1ccn(CC)c1.[Br-] + CO
mass density [kg/m3]
Details	293.15 K	298.15 K	303.15 K	308.15 K	313.15 K
x1 = 0.0251	846.2	–	837.6	833.1	–
x1 = 0.0498	891.1	886.7	882.4	878	874
x1 = 0.0749	929.9	–	921.5	917.2	–
x1 = 0.1043	968.4	964.3	960.2	–	952.4
x1 = 0.1485	–	1010.8	–	1003	999.4
x1 = 0.199	1057.1	1053	1049.2	–	–
x1 = 0.243	1086.3	1082.7	1079.3	–	–
x1 = 0.302	1117.7	1114.3	1110.8	1107	–
x1 = 0.3975	1156.5	1152.7	–	–	–
x1 = 0.4887	1183.8	–	1176.6	1173	1169.8
x1 = 0.6025	1209.3	1205.5	1202.1	–	1195.7
x1 = 0.7015	1226.6	1223.2	1219.8	1216.4	1213.5
x1 = 0.7965	1240.5	1237	1233.6	–	–
x1 = 0.888	1252	1248.2	1244.7	–	1237.8

Reference: a compilation of properties of binary mixtures (doi:10.1080/00450618.2013.825812)
